Measured values as given in PubChem BioAssay AID493208 (National Center for Advancing Translational Sciences (NCATS), 2011).
About 340 (0.77%) of roughly 44,000 compounds were called active. About 5% were inconclusive and are not listed. Calls come from the whole dose curve; as a rule, active = well fitted inhibition curve with a large enough effect; inconclusive = small, poorly fitted or top-dose-only effect; inactive = flat fitted curve, though single readings scatter. This is one part of the list.

Assay: Acumen qHTS Assay for Inhibitors of the mTORC1 Signaling Pathway in MEF (Tsc2-/-, p53-/-) Cells: Sytravon;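 note: plate controls were DMSO for no effect and rapamycin for full effect; nearly all actives have a fitted effect of over 50% in size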
Settings: phospho-rpS6 immunofluorescence/PI, 24 h; series mostly up to 38.3 µM; activity change, negative = inhibition: at the top concentration
Procedure, shortened: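 Plate MEFs (Tsc2-/-, p53-/-, empty vector) in DMEM/10% FBS; after 24 h add compound, incubate 24 h at 37 degree Celsius; fix in PFA/TX-100, block, stain phospho-rpS6 and 10 uM PI; scan at 488 nm; report % positive cells.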

Activity change, negative = inhibition, inactive:
COc1cc(C2c3c(-c4ccccc4O)n[nH]c3C(=O)N2Cc2ccncc2)ccc1O (configuration not stated) -4.88%, Cc1ccccc1NC(=O)c1ccccc1NC(=O)c1ccccc1Cl 7.47%, COc1cccc(CNC(=O)CC(c2ccc(F)cc2)N2Cc3ccccc3C2=O)c1 (configuration not stated) -1.5%, CCc1ccc(NC(=O)CSc2ccc3nnc(CCNS(=O)(=O)c4ccc(OC)cc4)n3n2)cc1 0.621%, CCc1ccc(NC(=O)C2CCN(c3cc(C)nc4c(-c5ccc(Cl)cc5)c(C)nn34)CC2)cc1 -7.37%, Cc1nc2ccc(S(=O)(=O)CCC(=O)Nc3ccc(F)cc3C)cc2s1 -4.93%, COc1cc(Cl)c(NC(=O)C2CCN(S(=O)(=O)c3c(C)noc3/C=C/c3ccccc3F)CC2)c(OC)c1 4.18%, CC(C)c1ccc(NC(=O)CCCc2nc(-c3ccc(Cl)cc3)no2)cc1 -5.75%, Cc1ccc(C2=Nc3ccccc3NC(c3ccncc3)=N2)cc1 1.42%, CCOc1ccc(-c2nc3c(C#N)c[nH]n3c2NC2CCCC2)cc1 -9.13%, CNS(=O)(=O)c1cn(CC(=O)Nc2ccc(C)cc2C)cc1S(=O)(=O)NC 0.351%, COc1ccc(NS(=O)(=O)c2ccc(NC(=O)N3CCCC3)cc2)cc1 -0.818%, CCOC(=O)c1cc(-c2ccc(C)cc2)nn1Cc1ccccc1 -6.17%, Cc1ccc(-c2cn3c(n2)sc2cc(C(=O)NCCCc4ccccc4)ccc23)cc1 5.23%, COc1ccc(CCNC(=O)CCc2c(C)nc3c(c(C)nn3-c3ccc(C)cc3)c2C)c(OC)c1 0.0607%, CCc1ccccc1NC(=O)C1CCCN(S(=O)(=O)c2cccc3nsnc23)C1 (configuration not stated) -0.11%, COc1ccc(-c2cc(C(=O)Nc3c(Cl)cccc3Cl)no2)cc1OC -22.1%, Cc1ccc(-n2c3c(c(=O)[nH]c2=O)C(NC(=O)c2ccccc2F)(C(F)(F)F)C(=O)N3)cc1C (configuration not stated) 3.98%, CCN(CCCNC(=O)c1cc2c(=O)n(CC)c3ccccc3c2s1)c1cccc(C)c1 -8.49%, Cc1ccccc1-c1nc(CS(=O)(=O)CC(=O)NC(C)c2ccccc2)c(C)o1 (configuration not stated) 1.26%, COc1ccc2c(c1)c(=O)c(S(=O)(=O)c1ccc(C)c(C)c1)cn2CC(=O)Nc1ccccc1 -4.6%, COc1ccc(Cl)cc1NC(=O)CN(c1cc(C)cc(C)c1)S(=O)(=O)c1c(C)n[nH]c1C -15.2%, CCc1ccc(NC(=O)c2cc3c(=O)n(Cc4cccs4)ccc3nc2C)cc1 -18.2%, O=C(Nc1cc(F)ccc1F)C1COc2ccccc2C1 (configuration not stated) -4.83%, COc1cc(-c2noc(C3CC(=O)N(c4ccc5c(c4)OCCO5)C3)n2)cc(OC)c1OC (configuration not stated) -11.2%, Cc1ccc(CNc2ccc(-c3nc(-c4ccco4)no3)cc2[N+](=O)[O-])cc1 0.226%, Cc1ccc(S(=O)(=O)c2nc(-c3ccccc3)oc2N2CCN(c3ccccc3)CC2)cc1 -9.37%, COc1ccc(C(=O)Nc2ccc(-n3nncc3-c3ccc(OC)c(OC)c3)cc2)cc1 6.4%, Cc1ccc(-c2cc(C(=O)O)n(Cc3ccccc3)n2)cc1 -1.84%, Cc1nn(CC(=O)NCCc2ccccc2Cl)c(=O)c2nn(-c3ccccc3)c(C)c12 -4.5%, O=S(=O)(c1ccccc1)N1CCC(c2ccncc2)CC1 1.5%, O=C1COc2cc(S(=O)(=O)CCC(=O)N3CCN(c4cccc(Cl)c4)CC3)c(Cl)cc2N1 6.29%, CCOc1ccc(CNC(=O)Cn2nc(C)c3nn(-c4ccc(Cl)cc4)c(C)c3c2=O)cc1OC 11.2%, COc1ccc(CNCc2c(C(=O)O)c(C)n(Cc3ccc(Cl)cc3)c2C)c(OC)c1 -0.203%, CC(=O)c1cc(-c2ccc(F)cc2)n(CCC(=O)Nc2nc3c(C)cccc3s2)c1C -7.24%, Cc1ccc2c(c1)c1c(c(=O)n(-c3ccccc3C)c(=O)n1CC(=O)NCCC1=CCCCC1)n2C -0.338%, Cc1ccc(-c2cc(C(=O)Nc3c(C(=O)c4ccccc4)oc4ccccc34)no2)cc1F -0.906%, Cc1ccc(Cc2nc3ccccc3nc2SCC(=O)Nc2cccc(C(F)(F)F)c2)cc1 2.03%, COC(=O)c1cnn(-c2ccc(C(=O)Nc3ccc(C(C)=O)cc3)cc2)c1N -1.06%, O=C(CN1CCSc2ccccc21)N1CCN(c2cccc(Cl)c2)CC1 -0.474%, Cc1ccc(-n2ncc3c(NC4CCCCC4)ncnc32)cc1 8.11%, Cc1ccc(CNS(=O)(=O)c2c(C)nc3scc(C)n3c2=O)cc1 7.46%, CC(C)(C)c1ccc(S(=O)(=O)NCc2nc3cccnc3n2Cc2ccccc2Cl)cc1 -16.4%, Cc1nc(N2CCCC2)c2c(C(=O)N3CCN(c4cccc(C)c4C)CC3)c(C)oc2n1 5.53%, CCC(=O)Nc1ccc2nc(SCc3ccc(C)cc3)sc2c1 -6.9%, CC(C)c1ccccc1NC(=O)CN1C(=O)c2cccc3cccc1c23 -13.2%, O=C(CSc1nc(-c2ccccc2)[nH]c1-c1ccccc1)Nc1ccc2c(c1)OCCO2 2.44%, CCCSCCCNC(=O)c1ccc2c(c1)nc1n2CCCCC1 7.21%, Cc1ccc(Nc2cc(C)c(C#N)c3nc4ccccc4n23)cc1Cl 2.44%, CC(C)c1cc(-c2nc(-c3ccccc3)no2)n[nH]1 1.33%, CN(CC(=O)Nc1ccccc1Cl)S(=O)(=O)c1ccc(C(=O)N2CCOCC2)s1 -0.246%, COc1ccc(S(=O)(=O)N2CCN(Cc3ccc4c(c3)OCO4)CC2)cc1OC -17.5%, COCCNC(=O)c1nn(-c2ccc(Cl)cc2)nc1CO 1.7%, Cn1cnc(S(=O)(=O)N2CCC(C(=O)NCc3ccc(Cl)cc3)CC2)c1 0%, COc1ccc(CNC(=O)c2cc3c(=O)n(C)c4ccccc4c3n2C)cc1 0.191%, O=C(Cc1ccccc1)N(Cc1cccnc1)c1nc2ccc(F)cc2s1 -5.23%, O=C(CSc1ccccc1)NCc1ccc2c(c1)CCN2C(=O)c1ccc(F)cc1 -13.3%, CCOc1cc(C2CC(=O)Nc3nc(SCc4ccccc4)[nH]c(=O)c32)ccc1O (configuration not stated) 0.52%, CCc1ccc2oc(-c3ccc(NC(=O)c4cc(OC)c(OC)c(OC)c4)cc3)nc2c1 -6.98%, CCOC(=O)c1ccc(N2C(=O)c3[nH]nc(-c4ccc(OCC)cc4)c3C2c2ccc(OC)cc2OC)cc1 (configuration not stated) 2.69%, O=C(Nc1cccc2cccnc12)c1ccc(F)cc1 -1.49%, Cc1ccccc1-c1nnc(C2CCN(S(=O)(=O)c3ccc(Cl)cc3)CC2)o1 0.362%
